Screen size: about 270,000 compounds; about 5,800 (2.1%) were called active. The shares of active, inactive and inconclusive entries below differ from those in the screen. Calls come from the whole dose curve; as a rule, active = well fitted inhibition curve with a large enough effect; inconclusive = small, poorly fitted or top-dose-only effect; inactive = flat fitted curve, though single readings scatter. Potencies of inconclusive entries are doubtful fits and often do not repeat.
Target: Microtubule-associated protein tau (Homo sapiens) (UniProt P10636)
Experiment: qHTS for Inhibitors of Tau Fibril Formation, Thioflavin T Binding; note: nearly all actives have a fitted effect of over 55% in size
Conditions: recombinant tau K18 P301L (four-repeat tau fragment), heparin-induced fibrillization, ThT fluorescence; series mostly up to 57.4 µM
In short: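 Heparin-induced (20 uM) aggregation of recombinant human K18 P301L tau, 15 uM unlabeled with 0.24 uM labeled, pH 7 acetate buffer, 6 hr at 37 C with compound. Fibrils quantified by 30 uM ThT fluorescence after 1 hr ambient incubation.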
Potency is the fitted concentration of half-maximal effect; tags give direction and shape of the fitted curve.

Chain of UniProt P10636 (P10636 whole entry, looked up): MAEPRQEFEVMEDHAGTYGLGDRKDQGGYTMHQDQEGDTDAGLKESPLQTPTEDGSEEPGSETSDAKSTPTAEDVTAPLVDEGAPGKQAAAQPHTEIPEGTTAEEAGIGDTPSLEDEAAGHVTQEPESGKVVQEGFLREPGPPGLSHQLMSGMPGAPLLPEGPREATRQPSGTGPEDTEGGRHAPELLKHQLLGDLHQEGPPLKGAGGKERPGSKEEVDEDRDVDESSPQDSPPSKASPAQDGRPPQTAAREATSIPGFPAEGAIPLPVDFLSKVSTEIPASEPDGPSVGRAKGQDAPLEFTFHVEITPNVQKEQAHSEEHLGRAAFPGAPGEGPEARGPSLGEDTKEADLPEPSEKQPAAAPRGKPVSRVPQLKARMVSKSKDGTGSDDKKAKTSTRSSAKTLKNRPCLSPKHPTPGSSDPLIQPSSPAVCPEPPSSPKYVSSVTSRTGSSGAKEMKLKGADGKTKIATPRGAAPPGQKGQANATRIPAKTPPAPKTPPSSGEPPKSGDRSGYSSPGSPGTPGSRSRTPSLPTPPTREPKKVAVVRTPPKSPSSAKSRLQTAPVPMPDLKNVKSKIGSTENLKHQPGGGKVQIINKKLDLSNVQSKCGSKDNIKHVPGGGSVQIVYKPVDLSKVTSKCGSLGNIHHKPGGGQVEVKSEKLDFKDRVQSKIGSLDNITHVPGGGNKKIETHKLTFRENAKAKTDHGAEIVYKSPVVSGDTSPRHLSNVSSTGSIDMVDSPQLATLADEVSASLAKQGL

Structure (SMILES)	Potency
COc1ccc(-c2nnc(-c3ccc(Br)o3)o2)cc1OC	inconclusive: 20 µM [inhibitor, single point]
CCCCCC(=O)Nc1nc(C)c(-c2csc(Nc3cc(Cl)ccc3C)n2)s1	inconclusive: 11.2 µM [inhibitor, partial curve]
CCOc1ccc(-c2nnc(SCC(=O)Nc3cc(C)on3)o2)cc1	inconclusive: 5.01 µM [inhibitor, partial curve]
O=C(Nc1ccc(F)c(F)c1)c1cc(S(=O)(=O)NCc2ccc3c(c2)OCO3)ccc1F	inactive
Cc1ccc(OCC(=O)N/N=C/c2ccc3c(c2)OCO3)cc1C	inconclusive: 3.16 µM [inhibitor, full curve]
CCCC(=O)C1=C(O)C(C(=O)OC)C(C)(C)CC1=Nc1ccc(N)cc1 (centres undefined)	inactive
O=C(N/N=C\c1ccc2c(c1)OCO2)c1ccc(Cn2cc(Br)c([N+](=O)[O-])n2)o1	inconclusive: 35.5 µM [inhibitor, partial curve]
COc1ccc(OCC(=O)NC(=S)Nc2ccccc2F)cc1	inconclusive: 2.82 µM [inhibitor, full curve]
CCCCc1nn2c(=O)cc(COC(=O)c3ccco3)nc2s1	inconclusive: 25.1 µM [inhibitor, single point]
Fc1ccc(-n2nnc(-c3ccnc4ccccc34)n2)cc1	inconclusive: 20 µM [inhibitor, single point]
CC1CCN(C(=O)Cn2cc(SCC(=O)Nc3ccccc3C(F)(F)F)c3ccccc32)CC1	inactive
CCCc1nc(S(=O)(=O)Cc2ccc(Cl)cc2Cl)n[nH]1	inactive
CCn1c2ccccc2c2cc(NC(=O)c3cc(C)on3)ccc21	inconclusive: 11.2 µM [inhibitor, partial curve]
COC(=O)C(CCCCNC(=O)c1ccc([N+](=O)[O-])cc1)NC(=O)c1ccc([N+](=O)[O-])cc1 (centres undefined)	inconclusive: 22.4 µM [inhibitor, single point]
COc1ccc(Cn2cc(C(=O)c3ccc(F)cc3)c(=O)c3cc4c(cc32)OCCO4)cc1	inactive
Cc1nn(C)c(C)c1CCNC(=O)Nc1cccc(Cl)c1C	inactive
CCC1(C)Cc2c(sc3nc(SC)nc(NCCN(C)C)c23)CO1 (centres undefined)	inactive
CCc1nnc(NC(=O)c2ccc(-c3ccc([N+](=O)[O-])cc3Cl)o2)s1	inconclusive: 0.708 µM [inhibitor, partial curve, poor fit]
CCOC(=O)N/N=C/c1ccc(C)o1	inactive
Clc1ccc(N=NN2CCOCC2)cc1	inconclusive: 28.2 µM [inhibitor, single point]
COc1ccc(-c2nc3ccccc3n2Cc2ccc(C)cc2)cc1	inactive
COc1ccc(NC(=O)c2cc3nc(-c4ccccc4)cc(C)n3n2)cc1OC	inconclusive: 20 µM [inhibitor, partial curve]
CCSc1nc2c([nH]c3ccccc32)c(=O)n1-c1cccc(OC)c1	inconclusive: 44.7 µM [inhibitor, single point]
OCCCc1n[nH]c(=S)n1-c1ccccc1	inconclusive: 35.5 µM [activator, single point]
CCOc1ccc(-n2nc3ccc(NC(=O)c4cccc(F)c4)cc3n2)cc1	inconclusive: 1.26 µM [inhibitor, full curve]

Structure (SMILES)	Potency
COc1ccc(-c2cc(-c3c(O)c(OC)c4occc4c3OC)[nH]n2)cc1OC	active: 11.2 µM
COCCNCc1nc2sc(C)c(-c3ccccc3)c2c(=O)[nH]1	inactive
Cc1ccc(C)c(NC(=O)CSc2nnc(-c3ccccc3)o2)c1	inconclusive: 3.55 µM [inhibitor, single point]
COc1ccccc1-n1c(CNC(=O)c2cccs2)n[nH]c1=S	inactive
CCn1c(C)c(CS(=O)(=O)c2ccccc2)[nH]c1=O	inconclusive: 14.1 µM [inhibitor, partial curve]
CN(C)c1cccc(C(=O)NCc2ccc(Cl)cc2)c1	inactive
CSc1ncccc1C(=O)Nc1ccc(S(=O)(=O)NC2=NCCCCC2)cc1	inactive
COc1cccc(/C=N/NC(=O)CSc2cccc3cccnc23)c1	inconclusive: 2.82 µM [inhibitor, full curve]
COc1ccc(NC(=O)C2C3CCC(C3)C2C(=O)O)cc1OC (centres undefined)	inconclusive: 44.7 µM [inhibitor, single point]
Cc1ncsc1CCOC(=O)c1ccc(N2CCOCC2)c([N+](=O)[O-])c1	inconclusive: 15.8 µM [inhibitor, partial curve]
CC(C)=CCc1c(O)c(CC=C(C)C)c2occ(-c3ccc(O)cc3)c(=O)c2c1O	inconclusive: 39.8 µM [inhibitor, single point]
COc1ccc(S(=O)(=O)Nc2cc3c(C(C)=O)c(C)oc3c3ccccc23)cc1	inactive
Cn1nc(-c2ccc(OCC(=O)Nc3ccc(Cl)cc3)cc2)c2ccccc2c1=O	inactive
CCN(C(=O)c1cc2c(=O)n(CC)c3ccccc3c2s1)c1cccc(C(F)(F)F)c1	inactive
COc1ccc(-c2c(C)oc3ccc(C)cc23)cc1	inconclusive: 31.6 µM [inhibitor, single point]
Cc1ccc(CN2C(=O)C(=O)c3cc(Br)cc(C)c32)cc1	active: 28.2 µM
COc1ccc(/C=C/C(=O)NCCc2ccc(S(N)(=O)=O)cc2)cc1	inconclusive: 39.8 µM [inhibitor, single point]
CC(=O)Nc1cccc(C(=O)O)n1	inactive
O=C(CN1c2ccccc2Sc2ccccc21)NNC(=O)Nc1ccc(Cl)c(Cl)c1	inconclusive: 15.8 µM [inhibitor, partial curve]
Cc1cc(C)c2c(N)c(C(=O)Nc3ncc(C)s3)sc2n1	inconclusive: 7.08 µM [inhibitor, partial curve]
CC1=C(C(=O)Nc2ccc(C)cc2)C(c2ccc(Cl)cc2)n2nnnc2N1 (centres undefined)	inactive
Cn1c(=O)cc(SCC(=O)NCC2CCCO2)c2ccc(Cl)cc21 (centres undefined)	inactive
CCOC(=O)C(C(C)=O)c1c(Br)c(O)c(O)c2c(C(=O)c3ccc(C)cc3)coc12 (centres undefined)	inconclusive: 4.47 µM [inhibitor, partial curve]
C/C(N)=N\S(=O)(=O)c1ccc(Cl)cc1	inconclusive: 12.6 µM [inhibitor, partial curve]
C=CCn1c(=O)n(CCOC)c(=O)c2sc3ccccc3c21	inconclusive: 22.4 µM [inhibitor, partial curve, poor fit]

Structure (SMILES)	Potency
O=C(NCCCNc1ccc([N+](=O)[O-])cc1Cl)c1ccccc1F	inconclusive: 31.6 µM [inhibitor, partial curve]
CCC(=O)Nc1ccc(-c2csc(NNC(C)=O)n2)cc1	inconclusive: 31.6 µM [inhibitor, partial curve]
Cc1ccc(-c2nn3c(-c4ccccc4)nnc3c3ccccc23)cc1	inconclusive: 10 µM [inhibitor, partial curve]
CCC(=O)C(C(=O)OC)[C@H](CCc1ccccc1)NC(=O)OC (some centres undefined)	inactive
Cc1ccc(NC(=O)CSc2nnc(-c3ccccn3)n2N)cc1F	inconclusive: 17.8 µM [inhibitor, partial curve]
O=[N+]([O-])c1nn(-c2ccc(Cl)cc2)n(O)c1=NCc1ccncc1	inconclusive: 12.6 µM [inhibitor, partial curve]
Cc1cc2nn(-c3cccc4ccccc34)nc2cc1NC(=O)c1cccs1	inconclusive: 11.2 µM [inhibitor, partial curve]
O=C(Nc1ccc2c(c1)OCCO2)C1CCN(S(=O)(=O)Cc2ccccc2)CC1	inconclusive: 12.6 µM [inhibitor, partial curve]
O=C(Cc1cccs1)NC1CC(=O)N(c2ccc(Cl)cc2)C1 (centres undefined)	inactive
Cc1nn(Cc2ccccc2)c2c1C(c1cccnc1)C(C#N)=C(N)O2 (centres undefined)	inconclusive: 25.1 µM [inhibitor, single point]
N#C/C(=C\c1ccc(-c2ccc([N+](=O)[O-])cc2)o1)C(=O)Nc1nc(-c2cccs2)cs1	active: 2.24 µM
Cc1cc(C)cc(-n2ccn3c(CC(C)(C)CC(=O)O)nnc3c2=O)c1	inactive
C=CCN1C2=NCCCN2c2ccccc21	inactive
COc1ccc(N2CCN(C(=O)NCc3noc4ccccc34)CC2)cc1	inactive
Cc1ccccc1N/N=C/c1ccc(N2CCOCC2)cc1	inconclusive: 20 µM [inhibitor, partial curve]
CCOC(=O)CNC(=O)/C=C/c1ccc2c(c1)OCO2	inactive
CC(C)c1ccc2oc(-c3cccc(NC(=O)c4ccc5c(c4)OCCO5)c3)nc2c1	inconclusive: 7.94 µM [inhibitor, full curve]
COc1cc(CNCCN2CCOCC2)ccc1OCc1c(Cl)cccc1Cl	inconclusive: 39.8 µM [inhibitor, single point]
Cc1ccc(C(=O)N/N=C2\CCCc3ccccc32)c(C)c1	inconclusive: 5.01 µM [inhibitor, partial curve]
Cc1ccc(C)c2[nH]c(=O)c(CN(Cc3cccs3)C(=S)NCc3ccco3)cc12	inactive
Cc1c(Nc2cc(Cl)c3nonc3c2[N+](=O)[O-])c(=O)n(-c2ccccc2)n1C	active: 3.98 µM
Cc1ccc(/C=N\NC(=O)c2csnn2)cc1	inconclusive: 11.2 µM [inhibitor, partial curve]
CCOC(=O)c1cc(-c2ccccc2)n(-c2cccc(C(=O)N(CC)c3ccccc3)c2)c1C	inconclusive: 20 µM [inhibitor, single point]
Cn1cnnc1SCc1ccc(-c2ccc(Br)cc2)o1	inconclusive: 15.8 µM [inhibitor, partial curve]

— PubChem BioAssay AID1460 (National Center for Advancing Translational Sciences (NCATS), 2008)
